# Source: PubChem BioAssay AID1347417 (National Center for Advancing Translational Sciences (NCATS), 2020)
# Screen size: about 120,000 compounds; about 5,300 (4.4%) were called active. The inconclusive results got no clear call from the source; some entries with a clear call stand among them for comparison. Calls follow the shape of the dose curve; as a rule, active = well fitted inhibition curve with a large enough effect; inconclusive = small, poorly fitted or top-dose-only effect; inactive = no such curve, though single readings can be large or run the other way. Potencies beside an inconclusive call are fits to weak or partial responses and may not hold up.
# Test: qHTS Primary assay for Inhibitors of Plasmodium falciparum Dd2 growth in vitro; also: nearly all actives have a fitted effect of over 65% in size;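 as to activity, negative = inhibition: plate controls were DMSO vehicle for no effect and reference drug for full effect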
# Conditions: P. falciparum Dd2 growth, SYBR Green, 72 h; activity, negative = inhibition: at 28.9 µM (top of the series) unless noted; series mostly up to 28.9 µM
# Method in brief: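 Infected erythrocytes (Dd2, 0.3% parasitemia, 2.5% hematocrit final) are added to compound in RPMI-1640/Albumax II medium, grown 72 h at 37C in low oxygen, then lysed with saponin/Triton-X containing SYBR Green and read by fluorescence.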
# Potency is read from the fitted curve at half-maximal effect; tags tell the direction and shape of the fitted curve.
Structure (SMILES),Potency,"activity, negative = inhibition",outcome
CCc1ccc(OCC(=O)NCC(c2ccc(OC)cc2)N2CCOCC2)cc1 (configuration not stated),active: 3.16 µM,,
Cc1ccc(-c2cc3c(=O)n(CCNC(=O)c4ccccc4F)ccn3n2)c(C)c1,"inconclusive: 17.8 µM [inhibitor, single point]",,
Cc1ccc2c(CNC3CCC(C)CC3)c(C(=O)O)n(Cc3cccc(F)c3)c2c1 (configuration not stated),"inconclusive: 12.6 µM [inhibitor, single point]",,
Cc1ccc2c(c1)nc(SCC(O)c1ccc(Br)cc1)n2C (configuration not stated),"inconclusive: 10 µM [inhibitor, single point]",,
COc1cc(CN2C[C@@H](CO)[C@H](C(=O)NC3CC3)C2)ccc1F,"inconclusive: 12.6 µM [inhibitor, partial curve]",,
COc1ccc(-c2[nH]ncc2C(=O)N2CC[C@H](CO)[C@H](NC(=O)C3CC3)C2)cc1,"inconclusive: 0.794 µM [inhibitor, partial curve, poor fit]",,
Cc1ccc(S(=O)Cc2nc(-c3ccc(C(=O)NC(C)c4ccccc4)cc3)oc2C)cc1 (configuration not stated),"inconclusive: 0.0631 µM [inhibitor, full curve, poor fit]",,
CN(C)c1nccnc1OC1CCN(C(=O)c2ccccc2Br)C1 (configuration not stated),"inconclusive: 10 µM [inhibitor, partial curve, poor fit]",,
COc1cccc(N2C(=O)NC(=NC3CCCCC3)C23CCN(Cc2ccsc2)CC3)c1,"inconclusive: 11.2 µM [inhibitor, single point]",,
O=C(Nc1cccc(C(F)(F)F)c1)N[C@@H]1C[C@H](CO)[C@@H](O)[C@H]1O,,inactive: -14.5% [at 44.1 µM],
CC(C)CCN1CCC(N2CCN(C(=O)c3cc(F)cc(F)c3)CC2)C1=O (configuration not stated),"inconclusive: 11.2 µM [inhibitor, single point]",,
O=C(C1CCCC1)N1Cc2ccccc2CC2(CCCN(CC3CCNC3)C2)C1 (configuration not stated),"inconclusive: 10 µM [inhibitor, single point]",,
CCC(=O)NCC1c2cc(OC)c(OC)cc2CCN1C(=O)NC(C)(C)C (configuration not stated),"inconclusive: 11.2 µM [inhibitor, partial curve, poor fit]",,
Cc1ccc(CN2CCC(CNC(=O)NC(C)C)C2)cc1C (configuration not stated),active: 8.91 µM,,
CCOC(=O)N1CCc2c(sc(NCc3sccc3C)c2C(=O)Nc2ccccc2OCC)C1,"inconclusive: 17.8 µM [inhibitor, single point]",,
CCOC(=O)c1ccc(NC(=O)CN2C(=O)CC(c3ccc(C)c(C)c3)=Nc3ccccc32)cc1,"inconclusive: 10 µM [inhibitor, single point]",,
O=C(c1ccc2c(c1)CC(=O)N2Cc1ccccc1)N1CCN(C2CCCCC2)CC1,active: 1.41 µM,,
CC1=C[C@@H](CNCc2cccnc2)[C@H](C(C)C)C[C@H]1Cc1nnc(-c2ccc(N(C)C)cc2)o1,"inconclusive: 1.41 µM [inhibitor, partial curve]",,
Cc1ccc(NC(=O)c2ccc(F)c(S(=O)(=O)N3CCc4ccccc4C3)c2)cc1F,"inconclusive: 17.8 µM [inhibitor, single point]",,
O=C(c1ccc(F)cc1)N1CCC(n2cc(-c3nc(-c4ccccc4)no3)nn2)CC1,"inconclusive: 3.98 µM [inhibitor, single point]",,
O=C(NCc1ccccn1)C1CCCN(C2CCN(C(=O)Cn3cnnn3)CC2)C1 (configuration not stated),,inactive: -2.21%,

Structure (SMILES),Potency,"activity, negative = inhibition",outcome
O=S(=O)(Cc1ccccc1)N1CCCC(Cc2noc(-c3cnccn3)n2)C1 (configuration not stated),"inconclusive: 12.6 µM [inhibitor, single point]",,
CC(=O)N1CCC(N2C[C@H](NC(=O)c3ccoc3C)[C@@H](C3CC3)C2)CC1,"inconclusive: 10 µM [inhibitor, partial curve, poor fit]",,
COc1cccc(NC(=O)C2CCN(S(=O)(=O)c3cc(-c4noc(C)n4)ccc3C)CC2)c1,active: 10 µM,,
CC(=O)N1Cc2ccccc2CC2(CCCN(CCc3ccc(C)cc3)C2)C1 (configuration not stated),"inconclusive: 7.08 µM [inhibitor, partial curve]",,
CCn1cc(C(=O)N2CCN(c3ccccc3)CC2)c(=O)c2cc(S(=O)(=O)N3CCC(C)CC3)ccc21,"inconclusive: 8.91 µM [inhibitor, single point]",,
COc1ccc(C2CC(=O)c3c([nH]c(C(=O)OCCOc4ccccc4)c3C)C2)cc1OC (configuration not stated),"inconclusive: 5.62 µM [inhibitor, partial curve, poor fit]",,
CCN1CCN(C(=O)c2cnn(-c3cccc(C)c3)c2C2CCN(C(=O)OC(C)(C)C)CC2)CC1,"inconclusive: 17.8 µM [inhibitor, single point]",,
CCc1ccc(N2C(=O)CS(=O)(=O)C23C(=O)N(Cc2ccccc2F)c2ccccc23)cc1 (configuration not stated),"inconclusive: 11.2 µM [inhibitor, single point]",,
Cc1nn(C(=O)CCCC(=O)N2CCC(Cc3nncn3-c3ccccc3)CC2)c2ccccc12,"inconclusive: 4.47 µM [inhibitor, partial curve, poor fit]",,
O=C1CCN(C(=O)c2cccnc2)CCCC(c2nc(-c3ccccc3)no2)CCN1 (configuration not stated),,,inactive
COc1ccc(CNC(=O)CC[C@H]2CNC(=O)[C@H]3NCC[C@H]3N2C)cc1,,inactive: 8.06% [at 44.1 µM],
Cc1ccc2nc(C3CCCN(Cc4cccc(-c5ccc(F)cc5F)c4)C3)[nH]c(=O)c2c1 (configuration not stated),"inconclusive: 8.91 µM [inhibitor, partial curve, poor fit]",,
CN(C)[C@@H]1CN(C(=O)c2ccsc2)CC[C@]1(O)c1ccccc1,,,inactive [at 5.79 µM]
N#CCn1nc2n(c1=O)CCN(C(=O)Cc1c(F)cccc1Cl)CC2,,,inactive
COc1cccc(OC)c1Cn1nnc2c(=O)[nH]c(C3CCN(C(=O)c4ccccc4)CC3)nc21,"inconclusive: 11.2 µM [inhibitor, single point]",,
O=C(NCc1ccccn1)c1cccc2c1CCN2C(=O)C1CC1,"inconclusive: 3.98 µM [inhibitor, single point]",,
Cc1noc(C)c1S(=O)(=O)N1CCC2(CC1)C(=O)N(C)c1ccccc12,active: 3.55 µM,,
COc1ncccc1-c1cc(-c2cn[nH]c2)c2cncn2c1,"inconclusive: 5.62 µM [inhibitor, full curve, poor fit]",,
CSc1cccc(NC(=O)Cn2c(-c3ccc(F)cc3)nc(C)c(CCO)c2=O)c1,"inconclusive: 2 µM [inhibitor, partial curve]",,
Cc1ccc(NC(=O)Cn2c(-c3ccc(F)cc3)nc(C)cc2=O)c(Cl)c1,,,inactive
CCC(CC)C(=O)NC[C@H]1O[C@H](Cc2cc(-c3ccc(F)cc3)on2)CC[C@@H]1O,,,inactive [at 44.1 µM]

Structure (SMILES),Potency,"activity, negative = inhibition",outcome
COC[C@@H]1CN(S(=O)(=O)c2cccc(F)c2)C[C@H]1c1ccncc1,,inactive: 2.93%,
CC(C)(O)CCc1cccc(C(=O)NCCNc2cccnc2)c1,,inactive: -26.7%,
CC(C)c1cc(NCc2csc(-c3ncccn3)n2)n2nccc2n1,"inconclusive: 7.94 µM [inhibitor, partial curve, poor fit]",,
CN1C(=O)c2ccccc2Sc2ccc(NC(=O)COc3ccc(Cl)cc3)cc21,"inconclusive: 20 µM [inhibitor, partial curve, poor fit]",,
CC1CCCN(C(=O)Cn2c(=O)n(CC3CCC(C(=O)NC(C)C)CC3)c(=O)c3sccc32)C1 (configuration not stated),"inconclusive: 11.2 µM [inhibitor, single point]",,
COc1cccc(C(=O)NC2CCN(c3nnc4ccccn34)CC2)c1,,,inactive
CC(C)(CC(=O)O)CC(=O)N1CCN2C(=O)c3cc(-c4ccc(Cl)cc4)ccc3NC(=O)[C@@H]2C1,"inconclusive: 6.31 µM [inhibitor, single point]",,
O=C(O)c1ccc(CN2CC(COc3ccccc3)C3(C2)CN(c2ccccc2)C3)cc1 (configuration not stated),"inconclusive: 2 µM [inhibitor, partial curve, poor fit]",,
CN1c2cc(C(=O)Nc3ccc(F)c(Cl)c3)ccc2C(=O)N2CCCCCC21 (configuration not stated),"inconclusive: 2.24 µM [inhibitor, partial curve, poor fit]",,
COc1ccc(-c2nc3c(c(-c4ccccc4)n2)CN(C(=O)c2ccccc2F)CC3)cc1,"inconclusive: 12.6 µM [inhibitor, single point]",,
O=C(CCC1CCCN(Cc2nc3c(s2)CCCC3)C1)Nc1ccccc1F (configuration not stated),"inconclusive: 8.91 µM [inhibitor, single point]",,
Cc1nc2cccnc2n1CC1CCCN(C(=O)Nc2ccccc2Cl)C1 (configuration not stated),,,inactive
O=C1Cc2c(-c3ccccc3OCc3ccccc3)n[nH]c2CN1Cc1ccccn1,active: 10 µM,,
COCCNC(=O)CC[C@]12CC[C@](C)(O)C[C@H]1C(C)(C)C[C@@H]2NC(=O)Cc1cccs1,,inactive: -6.18%,
CCCCN1C(=O)[C@@H]2C[C@@H](O)CN2C2(CN(Cc3cnc4ccccc4c3)C2)C1=O,"inconclusive: 7.08 µM [inhibitor, partial curve]",,
CC(C)Oc1cccc(-c2n[nH]c3c2CC(=O)N(CCOc2ccccc2)C3)c1,active: 8.91 µM,,
O=C1CC(c2ccccc2)N(C(=O)CNC(=O)c2[nH]nc3c2CCc2ccccc2-3)CCCCCCN1 (configuration not stated),"inconclusive: 0.501 µM [inhibitor, full curve, poor fit]",,
Cc1cccc(OCC2(CNC(=O)c3cc(C)nn3C)C[C@@H](O)[C@@H](O)C2)n1 (some centres not stated),"inconclusive: 31.6 µM [inhibitor, single point]",,
CCN(CCNC(=O)CCc1cc2cc(OC)ccc2[nH]c1=O)Cc1ccccc1,"inconclusive: 3.98 µM [inhibitor, partial curve, poor fit]",,
CC1(C(=O)NCCCc2ccccc2)CCCCC(=O)N1 (configuration not stated),,,inactive
